# Measured values as given in the supplement of paper PMC4604168 (melanoma cell lines).
# Some of the results follow. Most values come without repeats; read them as rough.
# Assays:
# Assay in all cases: cell count relative to DMSO control; melanoma cells; higher = more viable cells
# Settings in all cases: library dose: low library concentration; 72 h
# WM115 = tested on: WM115
# WM1716 = tested on: WM1716
# WM1745 = tested on: WM1745
# WM3526 = tested on: WM3526
# WM3619 = tested on: WM3619
# WM451Lu = tested on: WM451Lu
# 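Note: cell number obtained by counting DAPI-stained nuclei in high-throughput microscope images with image analysis software, screen run in 1,536-well plates.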
SMILES,cell count (WM115) [%],cell count (WM1716) [%],cell count (WM1745) [%],cell count (WM3526) [%],cell count (WM3619) [%],cell count (WM451Lu) [%]
"O=C(Nc1cc(C(F)(F)F)cc(C(F)(F)F)c1)c1cc(Cl)ccc1O + COc1cc2c(Oc3ccc4[nH]c(C)cc4c3F)ncnc2cc1OCCCN1CCCC1 [cediranib] (first compound 0.016 µM, partner dose 0.4 µM)",92.7,102,90.7,80.1,86.5,74.2
"Cc1cc(N2CCOCC2)cc2[nH]c(-c3c(NC[C@@H](O)c4cccc(Cl)c4)cc[nH]c3=O)nc12 + Oc1cc(-c2nc(-c3ccccc3)[nH]c2-c2ccncc2)ccc1Cl [L779450] (first compound 0.2 µM, partner dose 0.2 µM)",78.6,121,61.5,61.1,80,100
"Cn1nnc2c(C(N)=O)ncn2c1=O [temozolomide] + Cc1cc([N+](=O)[O-])ccc1NS(=O)(=O)c1cc(Cl)ccc1Cl [FH535] (first compound 2 µM, partner dose 1 µM)",86.9,96,87.7,73.5,115,95.8
"O=C(Nc1cc(C(F)(F)F)cc(C(F)(F)F)c1)c1cc(Cl)ccc1O + Oc1cc(-c2nc(-c3ccccc3)[nH]c2-c2ccncc2)ccc1Cl [L779450] (first compound 0.016 µM, partner dose 0.2 µM)",90.7,137,99.1,67.5,85,86.5
"O=C(Nc1cc(C(F)(F)F)cc(C(F)(F)F)c1)c1cc(Cl)ccc1O + CO[C@H]1C[C@@H]2CC[C@@H](C)[C@@](O)(O2)C(=O)C(=O)N2CCCC[C@H]2C(=O)O[C@H]([C@H](C)C[C@@H]2CC[C@@H](OCCO)[C@H](OC)C2)CC(=O)[C@H](C)/C=C(\C)[C@@H](O)[C@@H](OC)C(=O)[C@H](C)C[C@H](C)/C=C/C=C/C=C/1C [everolimus] (first compound 0.016 µM, partner dose 0.02 µM)",72.4,72.1,78.8,69.1,60.7,81.5
"Cc1cc(N2CCOCC2)cc2[nH]c(-c3c(NC[C@@H](O)c4cccc(Cl)c4)cc[nH]c3=O)nc12 + N#Cc1c(O)c2c(-c3ccc(-c4ccccc4O)cc3)csc2[nH]c1=O [A769662] (first compound 0.2 µM, partner dose 2 µM)",98.1,93.7,85.8,104,127,109
"O=C(Nc1cc(C(F)(F)F)cc(C(F)(F)F)c1)c1cc(Cl)ccc1O + Cc1ccc(NC(=O)c2cccc(N(C)C)c2)cc1NC(=O)c1ccc(O)cc1 [ZM336372] (first compound 0.016 µM, partner dose 2 µM)",107,96,80.2,107,90.7,91.9
"O=C(O)c1ccc2c(c1)nc(Nc1cccc(Cl)c1)c1ccncc12 + O=C(Nc1cccc(Cl)c1)Nc1ncc(CCNc2ncnc3ccsc23)s1 [SNS314] (first compound 0.4 µM, partner dose 0.0008 µM)",76.2,84,99.1,83.5,99.8,107
"O=C(Nc1cc(C(F)(F)F)cc(C(F)(F)F)c1)c1cc(Cl)ccc1O + CNC(=O)c1cc(Oc2ccc(NC(=O)Nc3ccc(Cl)c(C(F)(F)F)c3)cc2)ccn1 [sorafenib] (first compound 0.016 µM, partner dose 0.4 µM)",95.2,82.8,113,66.7,92.9,100
"O=C(Nc1cc(C(F)(F)F)cc(C(F)(F)F)c1)c1cc(Cl)ccc1O + O=C1NC(=O)/C(=C/c2ccc(-c3ccc(F)cc3O)o2)S1 [AS252424] (first compound 0.016 µM, partner dose 1 µM)",92.9,113,108,92.7,128,116
"Cn1nnc2c(C(N)=O)ncn2c1=O [temozolomide] + Cc1cc(N2CCOCC2)cc2[nH]c(-c3c(NC[C@@H](O)c4cccc(Cl)c4)cc[nH]c3=O)nc12 [BMS536924] (first compound 2 µM, partner dose 0.2 µM)",108,87.1,82.8,106,85.2,94.1
"O=C(O)[C@@H]1[O][Sb](=[O])([O][Sb]2(=[O])[O][C@H]([C@H](O)CO)[C@H](O)[C@H](C(=O)O)[O]2)[O][C@H]([C@H](O)CO)[C@@H]1O (stereo not given in full) [stibogluconate] + COc1ccc(Cl)c(Nc2nc3ccccc3nc2NS(=O)(=O)c2cccc(NC(=O)C(C)(C)N)c2)c1 [XL147] (first compound 2 µM, partner dose 0.8 µM)",89.2,94.3,93.6,101,109,89.6
"O=C(Nc1cc(C(F)(F)F)cc(C(F)(F)F)c1)c1cc(Cl)ccc1O + Cc1cc(N2CCOCC2)cc2[nH]c(-c3c(NC[C@@H](O)c4cccc(Cl)c4)cc[nH]c3=O)nc12 [BMS536924] (first compound 0.016 µM, partner dose 0.2 µM)",90.8,102,74,77.9,111,105
"O=C(Nc1ccccc1)c1cc([N+](=O)[O-])ccc1Cl + COc1ccc2c(c1)CCC1C2CCC2(C)C(NCCCCCCN3C(=O)C=CC3=O)CCC12 [U73122] (first compound 2 µM, partner dose 0.4 µM)",80.7,91.1,89.6,108,96,118
"Cc1cc(N2CCOCC2)cc2[nH]c(-c3c(NC[C@@H](O)c4cccc(Cl)c4)cc[nH]c3=O)nc12 + COc1ccc(-c2ccc3c(N4CCOCC4)nc(N4C[C@@H](C)O[C@@H](C)C4)nc3n2)cc1CO [KU0063794] (first compound 0.2 µM, partner dose 0.02 µM)",108,105,67.5,94.1,88.9,103
"O=C(O)c1ccc2c(c1)nc(Nc1cccc(Cl)c1)c1ccncc12 + OCCn1cc(-c2cnc3nnn(Cc4ccc5ncccc5c4)c3n2)cn1 [PF04217903] (first compound 0.4 µM, partner dose 1 µM)",112,101,88.5,69.3,113,86.4
"Cc1cc(N2CCOCC2)cc2[nH]c(-c3c(NC[C@@H](O)c4cccc(Cl)c4)cc[nH]c3=O)nc12 + O=C1NC(=O)/C(=C/c2ccc(-c3ccc(F)cc3O)o2)S1 [AS252424] (first compound 0.2 µM, partner dose 1 µM)",110,132,73.9,66.2,101,82.1
"O=C(O)c1ccc2c(c1)nc(Nc1cccc(Cl)c1)c1ccncc12 + CC(C)(C)c1cnc(CSc2cnc(NC(=O)C3CCNCC3)s2)o1 [SNS-032] (first compound 0.4 µM, partner dose 0.01 µM)",84.3,86.3,63,114,87.6,93.1
"O=C(Nc1cc(C(F)(F)F)cc(C(F)(F)F)c1)c1cc(Cl)ccc1O + c1cc(-c2cnn3cc(-c4ccc(OCCN5CCCCC5)cc4)cnc23)ccn1 [Dorsomorphin] (first compound 0.016 µM, partner dose 0.4 µM)",96,100,77.3,84.4,110,111
"O=C(O)c1ccc2c(c1)nc(Nc1cccc(Cl)c1)c1ccncc12 + Nc1cccc2c1CN(C1CCC(=O)NC1=O)C2=O [lenalidomide] (first compound 0.4 µM, partner dose 1 µM)",90.5,88,103,67.7,95.8,95.8
"O=C(O)c1ccc2c(c1)nc(Nc1cccc(Cl)c1)c1ccncc12 + COc1cc2ncnc(Nc3ccc(Oc4ccccc4)cc3)c2cc1OC [SrcI1] (first compound 0.4 µM, partner dose 2 µM)",95.7,107,89.5,80.4,100,108
"O=C(O)[C@@H]1[O][Sb](=[O])([O][Sb]2(=[O])[O][C@H]([C@H](O)CO)[C@H](O)[C@H](C(=O)O)[O]2)[O][C@H]([C@H](O)CO)[C@@H]1O (stereo not given in full) [stibogluconate] + C=CCNC1=C2C[C@@H](C)C[C@H](OC)[C@H](O)[C@@H](C)/C=C(\C)[C@H](OC(N)=O)[C@@H](OC)/C=C\C=C(/C)C(=O)NC(=CC1=O)C2=O [Tanespimycin] (first compound 2 µM, partner dose 0.002 µM)",103,119,110,98.1,126,125
"Cn1nnc2c(C(N)=O)ncn2c1=O [temozolomide] + CCc1ccc(CCOc2ccc(CC3SC(=O)NC3=O)cc2)nc1 [pioglitazone] (first compound 2 µM, partner dose 2 µM)",92.5,82.5,90.8,104,97,109
"O=C(Nc1cc(C(F)(F)F)cc(C(F)(F)F)c1)c1cc(Cl)ccc1O + O=C(O)c1ccc2c(c1)nc(Nc1cccc(Cl)c1)c1ccncc12 [CX4945] (first compound 0.016 µM, partner dose 0.4 µM)",115,109,113,103,96.5,113
"O=C(Nc1cc(C(F)(F)F)cc(C(F)(F)F)c1)c1cc(Cl)ccc1O + C=CCNC1=C2C[C@@H](C)C[C@H](OC)[C@H](O)[C@@H](C)/C=C(\C)[C@H](OC(N)=O)[C@@H](OC)/C=C\C=C(/C)C(=O)NC(=CC1=O)C2=O [Tanespimycin] (first compound 0.016 µM, partner dose 0.002 µM)",97.3,97.1,80.8,95.7,92.2,92.7
